± gives the standard deviation of the averaged measurements. Restriction of a single-cycle SIVsab GFP reporter by TRIM5α v1-loop variants in CRFK cells. Human variants: read share among cells still uninfected after two challenges over input, higher = gained restriction. Rhesus variants: share among infected cells over input, higher = lost restriction. Reporter dose not given per row. No active / inactive call per row; the paper calls a change when both replicates lie above its controls (mean + 2 SD of stop or wild-type variants, or the top frameshift score). Residues outside the varied loop are taken from Swiss-Prot. The paper reads the human single-substitution scores as noise; they and the rhesus combinations repeat poorly (rank correlation 0.3 to 0.4), indel scores repeat only for the top variants, rhesus substitutions well (0.9).
Test system: SIVsab (simian immunodeficiency virus of sabaeus monkeys), single-cycle GFP reporter, in CRFK cells
Assay: enrichment among uninfected cells over input (fold); higher = stronger restriction
Details: library: human / rhesus combinations
Experimental: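 Pools of CRFK cells expressing variants of the TRIM5α v1 loop were challenged with the single-cycle reporter, sorted by GFP and sequenced; mean of two replicates.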

Question: With “MASGILVNVKEEVTCPICLELLTQPLSLDCGHSFCQACLTANHKKSMLDKGESSCPVCRISYQPENIRPNRHVANIVEKLREVKLSPEGQKVDHCARHGEKLLLFCQEDGKVICWLCERSQEHRGHHTFLTEEVAREYQVKLQAALEMLRQKQQEAEELEADIREEKASWKTQIQYDKTNVLADFEQLRDILDWEESNELQNLEKEEEDILKSLTNSETEMVQQTQSLRELISDLEHRLQGSVMELLQGVDGVIKRTENVTLKKPETFPKNQRRVFRAPDLKGMLEVFRELTDVRRYWVDVTVAPNNISCAVISEDKRQVSSPKPQIIYQARGTLYTFQTFTNFNYCTGILGSQSITSGKHYWEVDVSKKTAWILGVCAGFQPDAMCNIEKNENYQPKYGYWVIGLEEGVKCSAFQDSSFHTPSVPFIVPLSVIICPDRVGVFLDYEACTVSFFNITNHGFLIYKFSHCSFSQPVFPYLNPRKCGVPMTLCSPSS [human TRIM5α, 330-340 = QARGTLYTFQTFT]” as the sequence, how does the enrichment read?
Answer: 0.207 ± 0.12

Question: For “MASGILVNVKEEVTCPICLELLTQPLSLDCGHSFCQACLTANHKKSMLDKGESSCPVCRISYQPENIRPNRHVANIVEKLREVKLSPEGQKVDHCARHGEKLLLFCQEDGKVICWLCERSQEHRGHHTFLTEEVAREYQVKLQAALEMLRQKQQEAEELEADIREEKASWKTQIQYDKTNVLADFEQLRDILDWEESNELQNLEKEEEDILKSLTNSETEMVQQTQSLRELISDLEHRLQGSVMELLQGVDGVIKRTENVTLKKPETFPKNQRRVFRAPDLKGMLEVFRELTDVRRYWVDVTVAPNNISCAVISEDKRQVSSPKPQIIYQARGTLYTFPTFTNFNYCTGILGSQSITSGKHYWEVDVSKKTAWILGVCAGFQPDAMCNIEKNENYQPKYGYWVIGLEEGVKCSAFQDSSFHTPSVPFIVPLSVIICPDRVGVFLDYEACTVSFFNITNHGFLIYKFSHCSFSQPVFPYLNPRKCGVPMTLCSPSS [human TRIM5α, 330-340 = QARGTLYTFPTFT]”, which enrichment is on record?
Answer: 0.0561 ± 0.074

Question: How did the enrichment turn out when “MASGILVNVKEEVTCPICLELLTQPLSLDCGHSFCQACLTANHKKSMLDKGESSCPVCRISYQPENIRPNRHVANIVEKLREVKLSPEGQKVDHCARHGEKLLLFCQEDGKVICWLCERSQEHRGHHTFLTEEVAREYQVKLQAALEMLRQKQQEAEELEADIREEKASWKTQIQYDKTNVLADFEQLRDILDWEESNELQNLEKEEEDILKSLTNSETEMVQQTQSLRELISDLEHRLQGSVMELLQGVDGVIKRTENVTLKKPETFPKNQRRVFRAPDLKGMLEVFRELTDVRRYWVDVTVAPNNISCAVISEDKRQVSSPKPQIIYQAPGTRYTFPTFVNFNYCTGILGSQSITSGKHYWEVDVSKKTAWILGVCAGFQPDAMCNIEKNENYQPKYGYWVIGLEEGVKCSAFQDSSFHTPSVPFIVPLSVIICPDRVGVFLDYEACTVSFFNITNHGFLIYKFSHCSFSQPVFPYLNPRKCGVPMTLCSPSS [human TRIM5α, 330-340 = QAPGTRYTFPTFV]” was run?
Answer: 0.0596 ± 0.083

Question: With “MASGILVNVKEEVTCPICLELLTQPLSLDCGHSFCQACLTANHKKSMLDKGESSCPVCRISYQPENIRPNRHVANIVEKLREVKLSPEGQKVDHCARHGEKLLLFCQEDGKVICWLCERSQEHRGHHTFLTEEVAREYQVKLQAALEMLRQKQQEAEELEADIREEKASWKTQIQYDKTNVLADFEQLRDILDWEESNELQNLEKEEEDILKSLTNSETEMVQQTQSLRELISDLEHRLQGSVMELLQGVDGVIKRTENVTLKKPETFPKNQRRVFRAPDLKGMLEVFRELTDVRRYWVDVTVAPNNISCAVISEDKRQVSSPKPQIIYGARGTRFTFQSFTNFNYCTGILGSQSITSGKHYWEVDVSKKTAWILGVCAGFQPDAMCNIEKNENYQPKYGYWVIGLEEGVKCSAFQDSSFHTPSVPFIVPLSVIICPDRVGVFLDYEACTVSFFNITNHGFLIYKFSHCSFSQPVFPYLNPRKCGVPMTLCSPSS [human TRIM5α, 330-340 = GARGTRFTFQSFT]” as the sequence, how does the enrichment read?
Answer: 0.24 ± 0.13

Question: For “MASGILVNVKEEVTCPICLELLTQPLSLDCGHSFCQACLTANHKKSMLDKGESSCPVCRISYQPENIRPNRHVANIVEKLREVKLSPEGQKVDHCARHGEKLLLFCQEDGKVICWLCERSQEHRGHHTFLTEEVAREYQVKLQAALEMLRQKQQEAEELEADIREEKASWKTQIQYDKTNVLADFEQLRDILDWEESNELQNLEKEEEDILKSLTNSETEMVQQTQSLRELISDLEHRLQGSVMELLQGVDGVIKRTENVTLKKPETFPKNQRRVFRAPDLKGMLEVFRELTDVRRYWVDVTVAPNNISCAVISEDKRQVSSPKPQIIYGAPGTRYTFQSLTNFNYCTGILGSQSITSGKHYWEVDVSKKTAWILGVCAGFQPDAMCNIEKNENYQPKYGYWVIGLEEGVKCSAFQDSSFHTPSVPFIVPLSVIICPDRVGVFLDYEACTVSFFNITNHGFLIYKFSHCSFSQPVFPYLNPRKCGVPMTLCSPSS [human TRIM5α, 330-340 = GAPGTRYTFQSLT]”, which enrichment is on record?
Answer: 0.162 ± 0.13

Question: For “MASGILVNVKEEVTCPICLELLTQPLSLDCGHSFCQACLTANHKKSMLDKGESSCPVCRISYQPENIRPNRHVANIVEKLREVKLSPEGQKVDHCARHGEKLLLFCQEDGKVICWLCERSQEHRGHHTFLTEEVAREYQVKLQAALEMLRQKQQEAEELEADIREEKASWKTQIQYDKTNVLADFEQLRDILDWEESNELQNLEKEEEDILKSLTNSETEMVQQTQSLRELISDLEHRLQGSVMELLQGVDGVIKRTENVTLKKPETFPKNQRRVFRAPDLKGMLEVFRELTDVRRYWVDVTVAPNNISCAVISEDKRQVSSPKPQIIYGAPGTRFTFPTFVNFNYCTGILGSQSITSGKHYWEVDVSKKTAWILGVCAGFQPDAMCNIEKNENYQPKYGYWVIGLEEGVKCSAFQDSSFHTPSVPFIVPLSVIICPDRVGVFLDYEACTVSFFNITNHGFLIYKFSHCSFSQPVFPYLNPRKCGVPMTLCSPSS [human TRIM5α, 330-340 = GAPGTRFTFPTFV]”, which enrichment is on record?
Answer: 0.246 ± 0.012

Question: For “MASGILVNVKEEVTCPICLELLTQPLSLDCGHSFCQACLTANHKKSMLDKGESSCPVCRISYQPENIRPNRHVANIVEKLREVKLSPEGQKVDHCARHGEKLLLFCQEDGKVICWLCERSQEHRGHHTFLTEEVAREYQVKLQAALEMLRQKQQEAEELEADIREEKASWKTQIQYDKTNVLADFEQLRDILDWEESNELQNLEKEEEDILKSLTNSETEMVQQTQSLRELISDLEHRLQGSVMELLQGVDGVIKRTENVTLKKPETFPKNQRRVFRAPDLKGMLEVFRELTDVRRYWVDVTVAPNNISCAVISEDKRQVSSPKPQIIYGARGTRFPSLVNFNYCTGILGSQSITSGKHYWEVDVSKKTAWILGVCAGFQPDAMCNIEKNENYQPKYGYWVIGLEEGVKCSAFQDSSFHTPSVPFIVPLSVIICPDRVGVFLDYEACTVSFFNITNHGFLIYKFSHCSFSQPVFPYLNPRKCGVPMTLCSPSS [human TRIM5α, 330-340 = GARGTRFPSLV]”, which enrichment is on record?
Answer: 0.304 ± 0.43

Question: With “MASGILVNVKEEVTCPICLELLTQPLSLDCGHSFCQACLTANHKKSMLDKGESSCPVCRISYQPENIRPNRHVANIVEKLREVKLSPEGQKVDHCARHGEKLLLFCQEDGKVICWLCERSQEHRGHHTFLTEEVAREYQVKLQAALEMLRQKQQEAEELEADIREEKASWKTQIQYDKTNVLADFEQLRDILDWEESNELQNLEKEEEDILKSLTNSETEMVQQTQSLRELISDLEHRLQGSVMELLQGVDGVIKRTENVTLKKPETFPKNQRRVFRAPDLKGMLEVFRELTDVRRYWVDVTVAPNNISCAVISEDKRQVSSPKPQIIYQARGTLFQSLVNFNYCTGILGSQSITSGKHYWEVDVSKKTAWILGVCAGFQPDAMCNIEKNENYQPKYGYWVIGLEEGVKCSAFQDSSFHTPSVPFIVPLSVIICPDRVGVFLDYEACTVSFFNITNHGFLIYKFSHCSFSQPVFPYLNPRKCGVPMTLCSPSS [human TRIM5α, 330-340 = QARGTLFQSLV]” as the sequence, how does the enrichment read?
Answer: 0.00222 ± 0.0015

Same assay, conditions: library: insertions and deletions

Question: “MASGILVNVKEEVTCPICLELLTQPLSLDCGHSFCQACLTANHKKSMLDKGESSCPVCRISYQPENIRPNRHVANIVEKLREVKLSPEGQKVDHCARHGEKLLLFCQEDGKVICWLCERSQEHRGHHTFLTEEVAREYQVKLQAALEMLRQKQQEAEELEADIREEKASWKTQIQYDKTNVLADFEQLRDILDWEESNELQNLEKEEEDILKSLTNSETEMVQQTQSLRELISDLEHRLQGSVMELLQGVDGVIKRTENVTLKKPETFPKNQRRVFRAPDLKGMLEVFRELTDVRRYWVDVTVAPNNISCAVISEDKRQVSSPKPQIIYGARGTRYQTFVNFNFVNFNYCTGILGSQSITSGKHYWEVDVSKKTAWILGVCAGFQPDAMCNIEKNENYQPKYGYWVIGLEEGVKCSAFQDSSFHTPSVPFIVPLSVIICPDRVGVFLDYEACTVSFFNITNHGFLIYKFSHCSFSQPVFPYLNPRKCGVPMTLCSPSS [human TRIM5α, 5-codon duplication at 339]” was tested. Which enrichment did it give?
Answer: 0.654 ± 0.66

Question: How did the enrichment turn out when “MASGILVNVKEEVTCPICLELLTQPLSLDCGHSFCQACLTANHKKSMLDKGESSCPVCRISYQPENIRPNRHVANIVEKLREVKLSPEGQKVDHCARHGEKLLLFCQEDGKVICWLCERSQEHRGHHTFLTEEVAREYQVKLQAALEMLRQKQQEAEELEADIREEKASWKTQIQYDKTNVLADFEQLRDILDWEESNELQNLEKEEEDILKSLTNSETEMVQQTQSLRELISDLEHRLQGSVMELLQGVDGVIKRTENVTLKKPETFPKNQRRVFRAPDLKGMLEVFRELTDVRRYWVDVTVAPNNISCAVISEDKRQVSSPKPQIGARGTRYQTFVNFNYCTGILGSQSITSGKHYWEVDVSKKTAWILGVCAGFQPDAMCNIEKNENYQPKYGYWVIGLEEGVKCSAFQDSSFHTPSVPFIVPLSVIICPDRVGVFLDYEACTVSFFNITNHGFLIYKFSHCSFSQPVFPYLNPRKCGVPMTLCSPSS [human TRIM5α, 2-codon deletion at 328]” was run?
Answer: 0.495 ± 0.043

Question: “MASGILVNVKEEVTCPICLELLTQPLSLDCGHSFCQACLTANHKKSMLDKGESSCPVCRISYQPENIRPNRHVANIVEKLREVKLSPEGQKVDHCARHGEKLLLFCQEDGKVICWLCERSQEHRGHHTFLTEEVAREYQVKLQAALEMLRQKQQEAEELEADIREEKASWKTQIQYDKTNVLADFEQLRDILDWEESNELQNLEKEEEDILKSLTNSETEMVQQTQSLRELISDLEHRLQGSVMELLQGVDGVIKRTENVTLKKPETFPKNQRRVFRAPDLKGMLEVFRELTDVRRYWVDVTVAPNNISCAVISEDKRQVSSPKPQIIYGARGTRTRYQTFVNFNYCTGILGSQSITSGKHYWEVDVSKKTAWILGVCAGFQPDAMCNIEKNENYQPKYGYWVIGLEEGVKCSAFQDSSFHTPSVPFIVPLSVIICPDRVGVFLDYEACTVSFFNITNHGFLIYKFSHCSFSQPVFPYLNPRKCGVPMTLCSPSS [human TRIM5α, 2-codon duplication at 334]” was tested. Which enrichment did it give?
Answer: 1.24 ± 0.96

Question: For “MASGILVNVKEEVTCPICLELLTQPLSLDCGHSFCQACLTANHKKSMLDKGESSCPVCRISYQPENIRPNRHVANIVEKLREVKLSPEGQKVDHCARHGEKLLLFCQEDGKVICWLCERSQEHRGHHTFLTEEVAREYQVKLQAALEMLRQKQQEAEELEADIREEKASWKTQIQYDKTNVLADFEQLRDILDWEESNELQNLEKEEEDILKSLTNSETEMVQQTQSLRELISDLEHRLQGSVMELLQGVDGVIKRTENVTLKKPETFPKNQRRVFRAPDLKGMLEVFRELTDVRRYWVDVTVAPNNISCAVISEDKRQVSSPKPQIIYGARGTRYQTFVNFNTFVNFNYCTGILGSQSITSGKHYWEVDVSKKTAWILGVCAGFQPDAMCNIEKNENYQPKYGYWVIGLEEGVKCSAFQDSSFHTPSVPFIVPLSVIICPDRVGVFLDYEACTVSFFNITNHGFLIYKFSHCSFSQPVFPYLNPRKCGVPMTLCSPSS [human TRIM5α, 6-codon duplication at 338]”, which enrichment is on record?
Answer: 0.787 ± 1

Source: the supplement of paper PMC12230231
